We go through 9 compounds from the antibiotic and cytotoxicity screens of Wong et al. (2023).

One experiment has as its system HSkMC. Nature of the experiment: cytotoxicity call (relative viability < 0.9). The settings on record: 10 µM.
Another experiment has as its system HepG2. Nature of the experiment: cytotoxicity call (relative viability < 0.9). The settings on record: 10 µM.
A further experiment relates to S. aureus RN4220. Put plainly: growth inhibition call (relative growth <= 0.2). The conditions noted are these: 50 µM.

This is one part of the list.

For `COc1cc(NC(=O)Cn2cnc3c2c(=O)n(C)c(=O)n3C)cc(OC)c1OC`, the cytotoxicity call with HSkMC and in the experiment on HepG2 was “inactive” each time. Also, the growth inhibition call in the experiment on S. aureus RN4220 was “inactive”.
As to `CCCC[C@H](C)C[C@H](O)/C=C/[C@H]1[C@H](O)CC(=O)[C@@H]1CCCC/C=C/C(=O)O`, the cytotoxicity call in the experiment with HSkMC and with HepG2 was “inactive” in each case. Besides, the growth inhibition call with S. aureus RN4220 is “inactive”.
Consider `C[C@@H]1CN([C@@H](C)CO)C(=O)c2cccc(NC(=O)Nc3ccc(C(F)(F)F)cc3)c2O[C@H]1CN(C)C(=O)Nc1cccc2ccccc12`, for which the cytotoxicity call in the experiment with HSkMC was “inactive”. Also, the cytotoxicity call in the experiment with HepG2 was “active”. Further, in the experiment with S. aureus RN4220, the growth inhibition call is “inactive”.
In the case of `CC(C)NC(=O)N(C)C[C@H]1Oc2ccc(NC(=O)Cc3ccccc3)cc2C(=O)N([C@@H](C)CO)C[C@H]1C`, the cytotoxicity call in the experiment with HSkMC and in the experiment on HepG2 was “inactive” in each case. Besides, in the experiment on S. aureus RN4220, the growth inhibition call was “inactive”.
As for `Cc1ccc(S(=O)(=O)Nc2ccc3c(c2)CC(=O)N([C@H](C)CO)C[C@@H](C)[C@@H](CN(C)S(=O)(=O)c2ccc(F)cc2)O3)cc1`, the cytotoxicity call in the experiment on HSkMC (human skeletal muscle cells) and in the experiment with HepG2 was “inactive” throughout. Besides, in the experiment on S. aureus RN4220, the growth inhibition call was “inactive”.
Take `COc1ccc(S(=O)(=O)Nc2ccc3c(c2)C(=O)N([C@H](C)CO)C[C@H](C)[C@H](CN(C)S(=O)(=O)c2ccc(Cl)cc2)OCCCC[C@H](C)O3)cc1`: the cytotoxicity call with HSkMC and in the experiment on HepG2 was “inactive” throughout. Besides, the growth inhibition call in the experiment on S. aureus RN4220 is “inactive”.
In the case of `Cc1c(C)c2c(c(C)c1OC(=O)CCC(=O)OCCO)CC[C@@](C)(CCC[C@H](C)CCC[C@H](C)CCCC(C)C)O2`, the cytotoxicity call in the experiment with HSkMC and with HepG2 was “inactive” in each case. The growth inhibition call in the experiment with S. aureus RN4220 was “inactive”.
Regarding `O=C(O)c1cc(F)c2nc(N3[C@@H]4CC[C@H]3C[C@@H](OCc3c(-c5ccccc5OC(F)(F)F)noc3C3CC3)C4)sc2c1`, the cytotoxicity call with HSkMC and in the experiment with HepG2 was “inactive” throughout. Further, the growth inhibition call in the experiment with S. aureus RN4220 was “active”.
Take `COc1cccc(C(=O)Nc2ccc3c(c2)C(=O)N(C)[C@H]2CC[C@@H](CC(=O)NCC4CC4)O[C@H]2CO3)c1`: the cytotoxicity call with HSkMC and in the experiment with HepG2 was “inactive” each time. In addition, the growth inhibition call in the experiment with S. aureus RN4220 was “inactive”.
